Like-named read-outs stand apart in the source and are kept apart here.
Legend:
Assay in all cases: cell-based or functional assay
[1] = target: T1, human 4-1BB expressed on cells (Jurkat-hu4-1BB-NFκB-luc2 reporter cells; human T cells in PBMC) (human, UniProt Q07011 24-255)
[2] = target: T1, human 4-1BB expressed on cells …; parameters: unit not given beside the values
[3] = target: T1, human 4-1BB expressed on cells …; remark: listed apart in the source
[4] = target: T1, human 4-1BB expressed on cells …; remark: listed apart in the source

Sequence of UniProt Q07011 (Q07011 24-255): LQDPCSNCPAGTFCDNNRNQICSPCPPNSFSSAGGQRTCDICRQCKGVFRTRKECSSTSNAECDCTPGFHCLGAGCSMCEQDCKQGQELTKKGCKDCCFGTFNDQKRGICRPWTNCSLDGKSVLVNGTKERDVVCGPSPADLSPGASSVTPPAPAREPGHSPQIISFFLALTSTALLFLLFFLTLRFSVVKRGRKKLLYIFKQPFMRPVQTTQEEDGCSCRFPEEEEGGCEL

B1: Her2(PER)-4-1BBL (monovalent anti-Her2(PER) split trimeric 4-1BB ligand Fc (kih) fusion antigen binding molecule containing CH1-CL crossover and charged … (Fc fusion)
heavy: EVQLVESGGGLVQPGGSLRLSCAASGFTFTDYTMDWVRQAPGKGLEWVADVNPNSGGSIYNQRFKGRFTLSVDRSKNTLYLQMNSLRAEDTAVYYCARNLGPSFYFDYWGQGTLVTVSSASTKGPSVFPLAPSSKSTSGGTAALGCLVKDYFPEPVTVSWNSGALTSGVHTFPAVLQSSGLYSLSSVVTVPSSSLGTQTYICNVNHKPSNTKVDKKVEPKSCDKTHTCPPCPAPEAAGGPSVFLFPPKPKDTLMISRTPEVTCVVVDVSHEDPEVKFNWYVDGVEVHNAKTKPREEQYNSTYRVVSVLTVLHQDWLNGKEYKCKVSNKALGAPIEKTISKAKGQPREPQVCTLPPSRDELTKNQVSLSCAVKGFYPSDIAVEWESNGQPENNYKTTPPVLDSDGSFFLVSKLTVDKSRWQQGNVFSCSVMHEALHNHYTQKSLSLSP
light: DIQMTQSPSSLSASVGDRVTITCKASQDVSIGVAWYQQKPGKAPKLLIYSASYRYTGVPSRFSGSGSGTDFTLTISSLQPEDFATYYCQQYYIYPYTFGQGTKVEIKRTVAAPSVFIFPPSDEQLKSGTASVVCLLNNFYPREAKVQWKVDNALQSGNSQESVTEQDSKDSTYSLSSTLTLSKADYEKHKVYACEVTHQGLSSPVTKSFNRGEC
chain 1: REGPELSPDDPAGLLDLRQGMFAQLVAQNVLLIDGPLSWYSDPGLAGVSLTGGLSYKEDTKELVVAKAGVYYVFFQLELRRVVAGEGSGSVSLALHLQPLRSAAGAAALALTVDLPPASSEARNSAFGFQGRLLHLSAGQRLGVHLHTEARARHAWQLTQGATVLGLFRVTPEIPAGLGGGGSGGGGSREGPELSPDDPAGLLDLRQGMFAQLVAQNVLLIDGPLSWYSDPGLAGVSLTGGLSYKEDTKELVVAKAGVYYVFFQLELRRVVAGEGSGSVSLALHLQPLRSAAGAAALALTVDLPPASSEARNSAFGFQGRLLHLSAGQRLGVHLHTEARARHAWQLTQGATVLGLFRVTPEIPAGLGGGGSGGGGSRTVAAPSVFIFPPSDRKLKSGTASVVCLLNNFYPREAKVQWKVDNALQSGNSQESVTEQDSKDSTYSLSSTLTLSKADYEKHKVYACEVTHQGLSSPVTKSFNRGE[here human IgG1 Fc with changes without letters]
chain 2: REGPELSPDDPAGLLDLRQGMFAQLVAQNVLLIDGPLSWYSDPGLAGVSLTGGLSYKEDTKELVVAKAGVYYVFFQLELRRVVAGEGSGSVSLALHLQPLRSAAGAAALALTVDLPPASSEARNSAFGFQGRLLHLSAGQRLGVHLHTEARARHAWQLTQGATVLGLFRVTPEIPAGLGGGGSGGGGSASTKGPSVFPLAPSSKSTSGGTAALGCLVEDYFPEPVTVSWNSGALTSGVHTFPAVLQSSGLYSLSSVVTVPSSSLGTQTYICNVNHKPSNTKVDEKVEPKSC
EC50 of NFκB-activation-induced Luciferase activity, Jurkat-hu4-1BB-NFκB-luc2 reporter cells, with NCI-N87 cells [1]: 0.03 nM | EC50 of NFκB-activation-induced Luciferase activity, Jurkat-hu4-1BB-NFκB-luc2 reporter cells, with SK-Br3 cells [1]: 0.02 nM | AUC above background, PBMC activation assay, % CD25+ CD4 [2]: 81 | AUC above background, PBMC activation assay, % CD25+ CD8 [2]: 10 | AUC above background, PBMC activation assay, % GnzB high CD4 [2]: 55 | AUC above background, PBMC activation assay, % GnzB high CD8 [2]: 122 | AUC above background, PBMC activation assay, % proliferating CD4 [2]: 25 | AUC above background, PBMC activation assay, % proliferating CD8 [2]: 38 | EC50 PBMC activation assay, % CD25+ CD4, with NCI-N87 cells [3]: 0.02 nM | EC50 PBMC activation assay, % GnzB high CD4, with NCI-N87 cells [3]: 0.01 nM | EC50 PBMC activation assay, % GnzB high CD8, with NCI-N87 cells [3]: 0.02 nM | EC50 PBMC activation assay, % proliferating CD4, with NCI-N87 cells [3]: 0.02 nM | EC50 PBMC activation assay, % proliferating CD8, with NCI-N87 cells [3]: 0.01 nM | EC50 of NFκB-activation-induced Luciferase activity, Jurkat-hu4-1BB-NFκB-luc2 reporter cells, with KPL-4 cells [4]: 0.01 nM | EC50 of NFκB-activation-induced Luciferase activity, Jurkat-hu4-1BB-NFκB-luc2 reporter cells, with NCI-N87 cells [4]: 0.02 nM | EC50 of NFκB-activation-induced Luciferase activity, Jurkat-hu4-1BB-NFκB-luc2 reporter cells, with SK-Br3 cells [4]: 0.01 nM

Source: patent US20210024610A1 (Hoffmann-La Roche, published 2021)
